Source: the RNAGym collection of RNA variant scans (doi:10.1101/gad.245936.114)
Variants at the background level are over-represented here.

B1: tRNA (parent)
chain: CUCUCGGUAGCCAAGUUGGUUUAAGGCGCAAGACUUUAAUUUAUCACUACGAAAUCUUGAGAUCGGGCGUUCGACUCGCCCCCGGGAGAUUUUUUCCUCGAGCAA

Variants of: B1
Experiment: nonsense suppression (GFP-seq) (ratio to wild type); higher = more function; SUP4oc tRNA, yeast GFP reporter sort-seq
Outline: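 Yeast carrying genome-integrated SUP4oc tRNA variants from a library with ~3% random mutations were grown in raffinose/galactose medium with 80 mg/L adenine. Each strain also carried a galactose-driven GFP ochre reporter and RFP. Cells were sorted into GFP/RFP bins, and each bin was Illumina-sequenced (phred ≥30). Nonsense suppression (GFPSEQ) is the bin median GFP/RFP, weighted by each variant's estimated cell share per bin, relative to wild-type SUP4oc; variants needed ≥100 reads and ≥30 cells.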

Variant	nonsense suppression
U4A C34A A62G C83G	≤ 0.026
U4C G32C U76G C79G	≤ 0.026
U4A G18C A24U	≤ 0.026
U4C G7C G84C A87U	≤ 0.026
U4C A23G C29U G32A	≤ 0.026
U4G A31G	0.0398
U4G G67U C77U G85A	≤ 0.026
U4G U8A G32U U55G	≤ 0.026
U4G U22A	0.216
U4A A23G	0.288
U4G C81U	0.161
C3U U20G G26A U58G C75G	≤ 0.026
U4A A9U U58G	≤ 0.026
U4C C11A A31G A62G	≤ 0.026
U4A G25A	≤ 0.026
U4G G78C A89U	≤ 0.026
U4A C5G G69C G86A	≤ 0.026
U4A A24G G66C C68U	≤ 0.026
U4G G73U	0.0898
U4G G19A U20G	≤ 0.026
U4A A13C	0.294
C3U U21G	0.137
C3U U21A	0.196
U4A A33G A60U	≤ 0.026

Variant	nonsense suppression
C5A A54G	≤ 0.026
U4G A33G C34U G86C	≤ 0.026
C3U U20A U63G C72G	≤ 0.026
U4C C27A	≤ 0.026
U4C C27G	≤ 0.026
U4A G10A U21G G28C	≤ 0.026
U4G G10U U55A	≤ 0.026
U4G U71A	0.0967
U4G U71C	≤ 0.026
C5A A13G A31U G67A	≤ 0.026
U4A C79G C82G	≤ 0.026
C3U U8G	≤ 0.026
U4A C29A	≤ 0.026
U4C A14C U57A A62U C64A C68U	≤ 0.026
U4C A33C G88C	≤ 0.026
U4G U20C C75A G84U	≤ 0.026
U4A G7U U76A	≤ 0.026
C3U U16A U20G C83U	≤ 0.026
U4A A24U U71C G78A C82A A87C	≤ 0.026
U4C A62U	0.272
C3U U20G G85A	0.214
C3U U8A A9U	≤ 0.026
U4C A87G	1.1
U4C A14G A33U	≤ 0.026

Variant	nonsense suppression
U4A U21C A54C U57A C81A	≤ 0.026
U4G U20C G61C G67C U76C G88C	≤ 0.026
U4C G25A G26C U55A U70G	≤ 0.026
U4C U8A C34A U35A	≤ 0.026
U4C A23U	≤ 0.026
C3U U8G G15U U55C A60C A62G	≤ 0.026
U4C U22A G86A	0.552
U4A G73U	≤ 0.026
U4C G19U G66U	≤ 0.026
U4G C72U	≤ 0.026
U4G C5G G26A G73A G85A	≤ 0.026
U4G A31U C81U	≤ 0.026
C3U U17C C79U	≤ 0.026
U4G G19A A23C A30G A62U	≤ 0.026
U4C C68A	≤ 0.026
C3U U17A U58G A60G G61U	≤ 0.026
U4A C82A	≤ 0.026
U4C G19A A24U G66A A87U	≤ 0.026
U4A G28U A60C	≤ 0.026
U4A C5G G59A	≤ 0.026
U4C G7U A31G	≤ 0.026
U4G G59U C75G	≤ 0.026
U4A A9G G73U C77G G86U	≤ 0.026
U4C A74G	≤ 0.026

Variant	nonsense suppression
U4C G61C U70G	≤ 0.026
U4A A23G C79G	≤ 0.026
C3U U70G U76C	≤ 0.026
U4A G59U	≤ 0.026
U4C G7C A33G	≤ 0.026
U4C G59A	≤ 0.026
U4G C29A A74U U76A C79G	≤ 0.026
U4C G78C	1.06
U4C G78U	1.12
U4C A31C U35G U71G	≤ 0.026
U4A U21G G61C	≤ 0.026
U4A C29G A60C	≤ 0.026
U4A C83G	≤ 0.026
U4C G32A	≤ 0.026
U4G G61U	0.804
U4G U22C G28U	≤ 0.026
U4C C29G	≤ 0.026
U4C C29U	1.03
U4G G78U G84U	≤ 0.026
U4C G28C C34U	≤ 0.026
U4C G65U	≤ 0.026
U4C G18A C34A C56A U57A C81U	≤ 0.026
U4C A54C	1.01
C3U U76C C83U	≤ 0.026

Variant	nonsense suppression
U4C A14U G59U U71C U76A G86C	≤ 0.026
C5A A24G U55A C64U U70G	≤ 0.026
U4G U16C	0.882
U4G C34U G85U	≤ 0.026
U4A A30G	0.0267
C5A A24C	0.0269
U4C A24G C82G	≤ 0.026
U4C U58G G61A A89G	≤ 0.026
U4G G15A C72U	≤ 0.026
C3U U22G G88U	≤ 0.026
U4C G86A	1.09
C5A A30C	≤ 0.026
U4A C5A	0.0374
U4A U58G G61A	≤ 0.026
U4A U22A G59A	≤ 0.026
U4C U70A C80A	≤ 0.026
U4C G7C A13G U76C	≤ 0.026
C3U U20C A31U G84A	≤ 0.026
C3U U16A	0.16
C5A A13C A30C A33G	≤ 0.026
U4C G10C A13U A31U	≤ 0.026
C5A A9U U35A U55C	≤ 0.026
U4A C11G U71C G73A	≤ 0.026
U4A U17C U63A C82A	≤ 0.026

Variant	nonsense suppression
U4G A54C U55G U70G	≤ 0.026
U4C C11U U21G A31G A87U	≤ 0.026
U4A G59U U70G C82G	≤ 0.026
U4G A30U U35A	≤ 0.026
U4G A60C G85A	≤ 0.026
U4C A9G	0.391
U4C G19U U63G G65A	≤ 0.026
U4A A14U	0.0276
U4A C56G C75A C81G C82G	≤ 0.026
C3U U58C G88U	≤ 0.026
U4C G61A	1.25
U4G G7C C27U U71A A74U C75G	≤ 0.026
U4A G32A G84A	≤ 0.026
C3U U21A G32C C56U	≤ 0.026
U4A U35C G61C	≤ 0.026
C5A A9C A24G G85A	≤ 0.026
U4G U17C U21A G67U	≤ 0.026
U4C A33C G59U G88U	≤ 0.026
U4A A30U A33U U55A C56G	≤ 0.026
C3U U8G U58G C80A C82G G86C	≤ 0.026
U4A U57C A74U G84A	≤ 0.026
U4A	0.693
U4G	1.16
U4C	0.585

Variant	nonsense suppression
U4C U55A G67A C79G C83G	≤ 0.026
U4C C11A C12U	≤ 0.026
U4G G25A U58G G66A A74G	≤ 0.026
C3U U20C A74U	≤ 0.026
U4A G6A C79U	≤ 0.026
U4G A30U A31C U63C G65C	≤ 0.026
U4C C11A A13G	≤ 0.026
U4A U63A C77A	≤ 0.026
U4A U21G G69C	≤ 0.026
U4C C12U	0.745
U4C C12G	≤ 0.026
U4C A89C	≤ 0.026
C3U U76G	≤ 0.026
U4A U76C A89U	≤ 0.026
U4G G32A	≤ 0.026
U4C G18A G85C	≤ 0.026
C5A A13C U58A C81A	≤ 0.026
U4C A13C U17G C64G	≤ 0.026
U4C C80U	0.651
C5A A31G G73A	≤ 0.026
C3U U55A U57C C64U G67A	≤ 0.026
U4A G61U C82G	≤ 0.026
U4A U20G C68U	≤ 0.026
